Assay results from PMC6919601, “Identification of Plasmodium dipeptidyl aminopeptidase allosteric inhibitors by high throughput screening” (PLoS ONE, 2019).
About 230 (0.21%) of roughly 110,000 compounds showed an effect of 50% or more. Some of the results follow.

Molecular target: DPAP1 (Plasmodium falciparum, UniProt Q8IIJ9)
Experiment: primary screen, percent inhibition; read by cleavage of a fluorogenic dipeptide substrate; higher = more effect of the substance
Parameters: species or system P. falciparum D10 trophozoite lysates; single well
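Further: 30 min substrate incubation versus DMSO and 10 µM JCP410 controls.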

DPAP1, sequence (Q8IIJ9 whole entry, looked up): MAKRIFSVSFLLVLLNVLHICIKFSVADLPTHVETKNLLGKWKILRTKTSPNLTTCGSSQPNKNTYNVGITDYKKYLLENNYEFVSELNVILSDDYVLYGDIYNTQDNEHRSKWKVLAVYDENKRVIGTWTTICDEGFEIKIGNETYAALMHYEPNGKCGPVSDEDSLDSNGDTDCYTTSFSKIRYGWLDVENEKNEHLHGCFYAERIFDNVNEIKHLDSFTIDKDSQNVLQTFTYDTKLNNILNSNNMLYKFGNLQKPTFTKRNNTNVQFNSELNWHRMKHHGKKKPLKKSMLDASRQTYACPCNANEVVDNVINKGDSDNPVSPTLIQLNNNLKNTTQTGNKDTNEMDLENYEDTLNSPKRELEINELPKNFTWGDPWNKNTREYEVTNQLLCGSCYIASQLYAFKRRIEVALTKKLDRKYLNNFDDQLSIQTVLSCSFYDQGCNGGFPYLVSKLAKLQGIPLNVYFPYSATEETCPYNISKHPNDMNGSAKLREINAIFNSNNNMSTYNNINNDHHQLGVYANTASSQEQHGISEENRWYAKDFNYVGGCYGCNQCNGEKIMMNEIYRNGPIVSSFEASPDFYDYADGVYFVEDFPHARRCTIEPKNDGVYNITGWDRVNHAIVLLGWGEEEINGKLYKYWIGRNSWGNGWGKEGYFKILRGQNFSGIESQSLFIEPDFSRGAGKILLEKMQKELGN

SMILES	% Inhibition @ 10 uM [%]
O=C(Nc1ccc2ccccc2c1)/C(=C/c1ccc2c(c1)OCO2)NC(=O)c1ccco1	-0.736
Cc1cccc(Oc2nc3c(C)cccn3c(=O)c2/C=C(\C#N)S(=O)(=O)c2ccccc2)c1C	3.63
N#Cc1cccc2c1[nH]c1ccc(Cl)cc12	-2.2
Oc1cccc(CN2CCc3ccccc3C2)c1	6.33
COc1ccc(C(=O)NCC(c2ccco2)N2CCCC2)cc1 (stereo not shown)	5.2
CC1(C(=O)O)Cc2ccccc2C(=O)O1 (stereo not shown)	-3.53
Cc1ccc(-c2csc(-c3cc4cc(Br)cc(Br)c4oc3=O)n2)c(C)c1	-6.07
C=C(C)Cn1c(C(C)NC(=O)c2ccc(Cl)cc2)nc2ccccc21 (stereo not shown)	2.17
O=C(CN(c1cc(Cl)cc(Cl)c1)S(=O)(=O)c1ccccc1)N1CCCCC1	-5.82
O=C(c1cc(-c2ccccc2)[nH]n1)N1CCN(C(=O)c2ccc(Br)o2)CC1	0.745
O=C(Nc1ccc(C(=O)N2CCCC2)cc1)C1CC1c1ccc(Cl)cc1 (stereo not shown)	1.59
Cc1cc(C)n2nc(SCc3c(F)cccc3Cl)nc2n1	-5.8
OC1CCN(CCc2ccccc2)CC1	1.62
CCOC(=O)C1=C(C)N=c2s/c(=C\c3ccc(N(C)C)cc3)c(=O)n2C1c1ccc(OC)cc1 (stereo not shown)	2.22
CC1CCCCN1C(=O)CSc1nnc(-c2ccc(F)cc2)o1 (stereo not shown)	6.13
c1ccc(-c2nnc(COc3cccc4ccccc34)o2)cc1	-1.22
Cn1c(=O)c2c(-c3ccccc3)n(CCc3c[nH]c4ccccc34)cc2n(C)c1=O	2.41
CC(=O)Nc1ccc(C(=O)Nc2cccc(C)c2C)cc1	-1.79
CC(C)(CO)NC(=O)c1ccc2c(c1)C(=O)c1ccccc1-2	-3.53
O=C(NCCCSC1CCCCC1)c1csc2c1CCCC2	12.2
NCCNC(=O)c1c(NC(=O)c2ccccc2)sc2c1CCCC2	-9.28
CCOc1ccc2c(=O)c(-c3ccc4c(c3)OCCCO4)c(C)oc2c1	-0.622
Nc1nonc1C(=O)NCc1ccco1	20.5
Cc1nc2sc(C(=O)c3ccccc3)c(N)c2c(C)c1C(=O)Nc1ccccc1	-0.759
O=C(O)c1ccccc1NC(=O)C12CC3CC(CC(C3)C1)C2	-5.44

SMILES	% Inhibition @ 10 uM [%]
COc1ccc(CNC(=O)c2cnn3c2NC(c2ccc(OC)cc2)CC3C(F)(F)F)cc1 (stereo not shown)	-9.05
CCO/C=N/c1oc(C)c(C)c1C#N	1.5
O=C(Nc1scc(-c2ccccc2)c1C(=O)O)c1ccc(Cl)cc1	2.54
Cc1nc2c(c(C)c1CCC(=O)N1CCN(C(=O)c3ccco3)CC1)c(=O)n(C)c(=O)n2C	-1.3
COc1ccc(C)cc1N(CC(=O)NCc1ccccc1)S(=O)(=O)c1ccccc1	-1.61
CCn1cc2nc(SC)n(CCc3ccccc3)c(=O)c2n1	-0.873
COc1ccc(CN2CCC(C)CC2)c(C)c1C	-1.64
O=C1CCCC2=C1C(c1cccc([N+](=O)[O-])c1)Nc1ccc3ncccc3c12 (stereo not shown)	0.937
CCOc1ccc(OCC)c(S(=O)(=O)N2CCN(c3cc(C)ccc3C)CC2)c1	-6.43
Cc1ccnc(NC(=O)C(C(F)(F)F)C(F)(F)F)c1	-3.03
CS(=O)(=O)N(CCc1ccccc1)CC(=O)NCc1ccccn1	-11.2
c1cc2c(cc1C1CCCC1)c1c3n2CCNC3CCC1 (stereo not shown)	-1.61
OCC1CCCN(CCc2ccccc2)C1 (stereo not shown)	-5.26
COC(=O)C1(O)CC(C)N(C)CC1C (stereo not shown)	-1.86
CC(O)CN(Cc1c(F)cccc1Cl)CC(C)O (stereo not shown)	-1.5
COc1ccc(NC(=O)C2CC(=O)N(C)/C(=N/c3cccc(Cl)c3)S2)cc1 (stereo not shown)	0.873
O=C(Nc1cccc2c(S(=O)(=O)O)cccc12)c1ccccc1	-8.12
Cn1c(SCc2nc(-c3cccs3)no2)nnc1-c1ccc(Cl)cc1	-2.21
CCOc1cc2c(cc1OCC)C(C(=O)O)C(c1ccc(F)cc1Cl)N(C)C2=O (stereo not shown)	5.12
C=CCOc1c(Br)cc(/C=C2/NC(=O)N(CC=C)C2=O)cc1OC	-7.25
C=CCOc1cccc(C2c3c(oc4ccc(F)cc4c3=O)C(=O)N2CCOC)c1 (stereo not shown)	-1.33
O=[N+]([O-])/C=C\c1ccc(-c2ccc(Br)cc2)o1	2.13
CCOc1ccc(C(=O)Nc2c3c(nn2-c2ccc(Cl)cc2)CS(=O)(=O)C3)cc1	-3.83
CCC(C)NC(=O)C1CCC(CNS(=O)(=O)c2cccc3cccnc23)CC1 (stereo not shown)	-2.42
C#CCN1C(=O)S/C(=C/c2ccc(N3CCCCC3)o2)C1=O	-3.75

SMILES	% Inhibition @ 10 uM [%]
CCOC(=O)C1CCCCN1Cc1ccsc1 (stereo not shown)	-5.68
CCOc1ccccc1NC(=O)C1=C(C)NC(=O)NC1c1cc(OC)ccc1OC (stereo not shown)	-2.07
COc1ccc(C2C(C(=O)Nc3ccccc3)=C(C)N=c3s/c(=C/c4cnn(C)c4)c(=O)n32)cc1 (stereo not shown)	3.69
COc1ccc(CCNS(=O)(=O)c2cnc(Cl)c(Br)c2)cc1OC	-5.06
CN(C)CCN(C)C1CCN(CCc2ccccc2)CC1	-0.0953
Cc1cccc(Cl)c1OCCOCCN1CCCCC1	3.29
Cc1ccc(CNC(=O)c2cc3c(O)nc4ccccc4c3s2)cc1	-0.499
c1ccc(-c2nn(-c3ccccc3)c3ncc4[nH]c5ccccc5c4c23)cc1	-0.0372
Nc1nc(COc2ccc(F)cc2Cl)nc(N2CCOCC2)n1	-6.84
Clc1cccc2c(N3CCN(Cc4ccccc4)CC3)cnnc12	2.09
COC(=O)c1cccc(NC(=O)CCC2CCCCC2)c1	3.29
Cc1ccc(CCN2CC(C(=O)NCc3cccnc3)CC2=O)cc1 (stereo not shown)	1.62
COc1ccc(S(=O)(=O)NCCN2CCOCC2)cc1-c1nnc2c3ccccc3c(C)nn12	0.628
O=C(NCc1cccs1)C(NS(=O)(=O)c1cccc2nsnc12)c1ccccc1 (stereo not shown)	3.63
OCCN(CCO)Cc1ccc(Cl)cc1	-1.56
COc1ccccc1NC(=O)c1ccccc1NC(=O)c1cc(Cl)ccc1NC(=O)c1ccco1	-3.1
c1ccc2c(c1)CC(NCCc1c[nH]cn1)C2	-3.6
CCOc1ccc(NC(=O)C2CC(=O)N(C)/C(=N/c3ccc(F)cc3)S2)cc1 (stereo not shown)	0.873
O=C(Cn1c2c(c(-c3ccccc3Cl)cc1=O)CCC2)N1CCC2(CC1)OCCO2	-0.971
O=C(Cc1ccccc1)N1CCCCCC1	0.605
CC1CCCC(C)N1C(=O)Cn1cc(C(=O)c2ccccc2)c2ccccc21 (stereo not shown)	3.25
COC(=O)c1cccnc1-n1c(=O)c2cccnc2n(Cc2ccccc2Cl)c1=O	5.33
O=C(Nc1ccc(S(=O)(=O)N2CCCC2)cc1)C12CC3CC(C1)CC(n1cncn1)(C3)C2	1.34
C=CCN1C(=O)/C(=C/c2ccc(OC)cc2OC)C(=O)NC1=S	5.29
Cc1nn(CCC(=O)NCCc2ccc(Cl)cc2)c(=O)c2nn(-c3ccccc3)c(C)c12	-5.94

SMILES	% Inhibition @ 10 uM [%]
Cc1cc(C)c(Cn2c3ccccc3c3cnn(CC(=O)NCCN4CCOCC4)c(=O)c32)c(C)c1	-5.19
CCOc1ccc(-c2cc(NC(=O)c3ccncc3)c(C(=O)OC)s2)cc1	-0.447
CC(C)CSc1nc2c(c(=O)[nH]c(=O)n2C)n1CC(O)COc1ccc(Cl)cc1 (stereo not shown)	0.562
COc1ccc(C2C(C#N)=C(N)OC3=C2C(=O)CC(C)(C)C3)cc1COc1ccccc1Cl (stereo not shown)	3.05
Cc1ccc(CNC(=O)C(C)Sc2nc3nc(C)cc(C)n3n2)cc1 (stereo not shown)	-4.06
COc1ccc(CCNc2cc(C)c(C#N)c3nc4ccccc4n23)cc1OC	7.08
CN(C)Cc1ccccc1Sc1ccc(O)cc1O	-14.4
COc1ccc(Cl)cc1/N=C/C1=C(O)CC(c2ccccc2)CC1=O (stereo not shown)	-3.16
Cc1cc(C)cc(NC(=O)c2ccc(Br)cc2)c1	0.247
O=[N+]([O-])c1cc(C(F)(F)F)ccc1SCCO	-8.76
Cc1noc2ncnc(N3CCN(c4ncccn4)CC3)c12	1.57
CCOC(=O)N1CCC(NC(=O)c2oc3c(c2C)-c2n[nH]cc2CC3)CC1	-4.68
O=C1N/C(=C\c2cccc(C(F)(F)F)c2)C(=O)N1Cc1ccc(Cl)cc1	2.17
CCOc1ccccc1-n1nnc(C(N)=O)c1C	6.38
CC1=NN(C(=O)c2ccc(O)cc2)C(O)(c2ccc(Cl)cc2)C1 (stereo not shown)	-0.511
Cc1ccc(-n2nc3c(N4CCC(C(=O)O)CC4)nnc(C)c3c2C)cc1	1.43
N#C/C(=C\c1cccs1)C(=O)Nc1ncc(Cc2cccc(Cl)c2)s1	0.611
O=C(CC1CC2CCC1C2)Nc1nc2ccc(Br)cc2s1 (stereo not shown)	-1.46
Cc1cccc(C(=O)NC2(C(F)(F)F)N=C(SCc3ccccc3)NC2=O)c1 (stereo not shown)	0.032
COc1cc(NC(=O)c2ccccc2OC)c(OC)cc1Cl	2.65
CS(=O)(=O)N(CC(=O)NC1CCCCC1)c1ccc2c3c(cccc13)CC2	-9.66
COc1ccc(C2=N/C(=C\C(Br)=C\c3ccccc3)C(=O)O2)cc1OC	1.25
CCc1ccc(-n2nc(C)c3c(C)cc(=O)n(CC(=O)NCc4ccccc4)c32)cc1	5.78
O=C1CSc2nnc(-c3cccc(Cl)c3)n2N1	-0.45
COc1cccc2sc(N(CCCN(C)C)C(=O)c3nc4ccccc4s3)nc12	-2.41
